Measurements: PubChem BioAssay AID504706 (National Center for Advancing Translational Sciences (NCATS), 2011)
Hit rate of the full screen: of about 320,000 compounds, about 200 (0.062%) were called active. This list was built around the results that the source calls inconclusive (neither active nor inactive); the mix of calls is not that of the screen. Calls follow the shape of the dose curve; as a rule, active = well fitted activation curve with a large enough effect; inconclusive = small, poorly fitted or top-dose-only effect; inactive = no such curve, though single readings can be large or run the other way. No potency is given beside an inconclusive call; the fits are too rough.

Assay: qHTS assay for re-activators of p53 using a Luc reporter; also: nearly all actives have a fitted effect of over 45% in size; as to activity change, positive = activation: % of control where 0% means no effect
Details: H1299 p53-A138V BP100-luciferase reporter, luminescence, 24 h; series mostly up to 92.2 µM; activity change, positive = activation: at the top concentration
How it was run: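 H1299 (p53-null), stable ts p53-A138V + BP100-Luc; 1000 cells/well, Opti-MEM/10% FBS; cpd 4 pt, 1:5; 24 h, 37 deg C, 5% CO2; detection reagent 10 min RT; luminescence.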
Potency is read from the fitted curve at half-maximal effect; tags tell the direction and shape of the fitted curve.

Row | SMILES | Potency | activity change, positive = activation
1 | O=C(CSCc1ccccc1)Nc1cccc(F)c1 | inconclusive [activator, full curve, poor fit] | –
2 | O=c1c2ccccc2nnn1COc1ccc(F)cc1Cl | inconclusive [activator, single point] | –
3 | CS(=O)(=O)N(Cc1ccc(C(=O)NCCSc2ccccn2)cc1)c1ccccc1 | inconclusive [activator, partial curve, poor fit] | –
4 | COC(=O)N/N=C(\C)c1cccc(C(F)(F)F)c1 | – | inactive: 9.76%
5 | O=C1CC(N2CCN(c3ccc(F)cc3)CC2)C(=O)N1c1ccc(F)cc1 (stereo not given) | inconclusive [activator, full curve, poor fit] | –
6 | COc1ccc(-c2cc(-c3ccccc3)n[nH]2)c(O)c1 | inconclusive [activator, single point] | –
7 | Cn1c(SCC(=O)Nc2cccc(F)c2)nnc1-c1cc2ccccc2o1 | inconclusive [activator, partial curve, poor fit] | –
8 | C=CCn1c2ccccc2n2nc(C)c(=O)nc12 | – | inactive: -12.1%
9 | O=C(Nc1sc2c(c1C(=O)O)CCC2)c1cccs1 | – | inactive: 22.8%
10 | COC(=O)/C=C/C(=O)N1CCN(c2ccccc2)CC1 | inconclusive [activator, single point] | –
11 | Cc1ccc(NC(=O)c2ccc(C(C)(C)C)cc2)cc1[N+](=O)[O-] | inconclusive [activator, partial curve, poor fit] | –
12 | CCN1C(=O)/C(=C2/Sc3ccccc3N2CC)SC1=S | inconclusive [activator, single point] | –
13 | CCCC(=O)Nc1cccc(NC(=O)c2ccccc2Br)c1 | inconclusive [activator, partial curve, poor fit] | –
14 | O=C(NCc1ccccc1)c1cccc(COc2ccc3c(c2)CCC3)c1 | inconclusive [activator, partial curve, poor fit] | –
15 | Clc1ccc(-c2cn3ccccc3n2)cc1 | – | inactive: 4.59%
16 | Cc1nnc(SCC(=O)c2cc(C)n(C3CC3)c2C)s1 | inconclusive [activator, partial curve, poor fit] | –
17 | Cc1c(CCC(=O)NCCCC(=O)O)c(=O)oc2cc3oc4c(c3cc12)CCCC4 | – | inactive: -8.37%
18 | COc1ccc(OC)c(NC(=O)COC(=O)C2CCC2)c1 | inconclusive [activator, partial curve, poor fit] | –
19 | Cc1ccc(N(C(=O)c2cc3ccccc3oc2=O)C2C=CS(=O)(=O)C2)cc1 (stereo not given) | inconclusive [activator, single point] | –
20 | O=C(/C=C/c1ccc2c(c1)OCCCO2)c1ccc2ccccc2c1O | inconclusive [activator, partial curve, poor fit] | –
21 | CC1CCN(CCc2nc3cc(NC(=O)Nc4ccccc4)ccc3n2C)CC1 | inconclusive [activator, partial curve, poor fit] | –
22 | Oc1ccc(/C(Cc2ccc3ccccc3n2)=N\Nc2ccccc2)c(O)c1 | – | inactive: 22.1%
23 | O=C(Nc1nc(-c2cccnc2)cs1)c1ccccc1Cl | – | inactive: 6.71%
24 | CC(C)Oc1cccc(C(=O)Nc2ccc(Br)cc2F)c1 | inconclusive [activator, partial curve, poor fit] | –

Row | SMILES | Potency | activity change, positive = activation
25 | CC(C)(CN1CCNCC1)NS(=O)(=O)c1ccc(Cl)cc1 | – | inactive: 5.26%
26 | CC1(C)C=C(c2ccc(O)cc2)CC(C)(C)N1 | – | inactive: -3.52%
27 | Cc1ccc(-n2nnc(-c3cc4ccccc4nc3Cl)n2)cc1 | – | inactive: 18%
28 | CNCCOc1ccccc1OC(C)C | inconclusive [activator, single point] | –
29 | COc1cc2c(cc1/C=C/C(=O)O)OC(C)C2 (stereo not given) | inconclusive [activator, single point] | –
30 | O=c1c2cc(N3CCOCC3)ccc2[nH]c(=S)n1Cc1ccco1 | inconclusive [activator, partial curve, poor fit] | –
31 | Cc1c(NC(=O)c2ccc(C(C)(C)C)cc2)cccc1[N+](=O)[O-] | inconclusive [activator, full curve, poor fit] | –
32 | c1ccc(-c2cnn3c(-c4ccccc4)c(-c4ccccc4)nc3n2)cc1 | – | inactive: -2.9%
33 | COc1cc(/C=C/C(=O)OCc2cn3cc(Cl)ccc3n2)ccc1O | – | inactive: -4.07%
34 | COc1ccc2oc(=O)c(-c3nc(C)cs3)cc2c1 | inconclusive [activator, partial curve, poor fit] | –
35 | CC1CCCC(NC(=S)NC(=O)c2ccccc2Br)C1C (stereo not given) | inconclusive [activator, partial curve, poor fit] | –
36 | Cc1nn(-c2ccccc2)c2sc(C(=O)NNC(=O)COc3ccccc3)cc12 | inconclusive [activator, partial curve, poor fit] | –
37 | O=C(Nc1ccccc1)N1C(=O)C2(OCCO2)c2ccccc21 | inconclusive [activator, full curve, poor fit] | –
38 | COc1ccc(OCC(=O)Nc2ccc(C)cc2)cc1 | – | inactive: 11.1%
39 | Cc1nn(Cc2c(Cl)cccc2Cl)c(C)c1NC(=O)c1cc(C(C)C)on1 | inconclusive [activator, partial curve, poor fit] | –
40 | COc1ccc(NC(=O)Nc2ccccc2C(N)=O)cc1 | – | inactive: 0.313%
41 | COc1ccc(NC(=O)c2cc(-c3ccccc3O)n[nH]2)cc1Cl | – | inactive: 6.16%
42 | COc1ccc(NC(=O)c2nc[nH]c2C(=O)N2CCN(c3ccccc3)CC2)cc1 | – | inactive: -4.79%
43 | Cc1ccc(Cn2c(=N)n(CC(O)COc3ccccc3)c3ccccc32)cc1 (stereo not given) | – | inactive: -11%
44 | Cc1cc(=O)oc2cc(OCC3CC(c4ccccc4)=NO3)ccc12 (stereo not given) | inconclusive [activator, partial curve, poor fit] | –
45 | O=C(COc1ccccc1)NCCSc1ccccc1 | inconclusive [activator, partial curve, poor fit] | –
46 | NNc1nc2cc3c(cc2s1)OCCO3 | inconclusive [activator, partial curve, poor fit] | –
47 | COc1ccc(O[C@H]2C=C[C@@H](c3ccccc3)O[C@@H]2CO/N=C(\C)CCC(=O)OC[C@H]2O[C@H](c3ccccc3)C=C[C@@H]2Oc2ccc(OC)cc2)cc1 | – | inactive: -3.06%
48 | Cc1ccc(OCC(=O)N/N=C/C=C/c2ccco2)cc1C | inconclusive [activator, single point] | –

Row | SMILES | Potency | activity change, positive = activation
49 | CCOc1ccccc1NC(=S)NCCc1ccccc1 | – | inactive: -3.81%
50 | Cc1cc(C(=O)N/N=C\c2cc(C(C)(C)C)ccc2O)n[nH]1 | inconclusive [activator, partial curve, poor fit] | –
51 | N=c1c(C(=O)NCc2ccc(F)cc2)cc2c(=O)n3ccccc3nc2n1CCCN1CCOCC1 | – | inactive: -3.01%
52 | CCc1cc2c(=O)c(-c3ccon3)c(N)oc2cc1OC | inconclusive [activator, partial curve, poor fit] | –
53 | Nc1cc(C(=O)O)ccc1Nc1ccccc1 | – | inactive: 15.6%
54 | Cc1cc(C)nc(N/N=C/c2ccccc2OCc2ccc(Br)cc2)n1 | inconclusive [activator, partial curve, poor fit] | –
55 | O=C(/C=C/c1ccccc1Cl)Nc1ccccc1 | inconclusive [activator, partial curve, poor fit] | –
56 | CCCOC(=O)/C(=C\C=C\c1ccco1)NC(=O)c1ccccc1 | inconclusive [activator, single point] | –
57 | O=C(Nc1ccnn1C1CCN(C/C=C/c2ccccc2)CC1)c1ccccc1Cl | inconclusive [activator, partial curve, poor fit] | –
58 | O=C1NC(=O)/C(=C/c2ccc(-c3cccc([N+](=O)[O-])c3)o2)S1 | inconclusive [activator, partial curve, poor fit] | –
59 | Cc1csc2ncnc(NNC(=O)c3ccc(Cl)cc3)c12 | – | inactive: 0.477%
60 | COC(=O)c1sc(NC(=O)COc2cccc3ccccc23)nc1C | inconclusive [activator, single point] | –
61 | Cc1ccc(NC(=O)CCN2CCC(Cc3ccccc3)CC2)cc1 | inconclusive [activator, single point] | –
62 | COc1cc(Cl)c(C)cc1NC(=O)COC(=O)c1cc(SC)ccc1Cl | inconclusive [activator, single point] | –
63 | COc1cccc(NC(=O)CSC2=C(C#N)C(c3ccco3)C3=C(CCCC3=O)N2)c1 (stereo not given) | inconclusive [activator, partial curve, poor fit] | –
64 | CC(=O)NCCSC(=O)c1ccc(F)cc1 | inconclusive [activator, single point] | –
65 | CC(=O)c1c(C)[nH]c(C(=O)NCCC2=CCCCC2)c1C | inconclusive [activator, full curve, poor fit] | –
66 | COc1ccc(CNC(=O)c2ccc(-c3ccccc3)cc2)cc1 | inconclusive [activator, full curve, poor fit] | –
67 | CN(C(=O)c1cccc(COc2ccc(Cl)cc2Cl)c1)c1ccccc1 | inconclusive [activator, partial curve, poor fit] | –
68 | CCCC(=O)Nc1nnc(S(=O)(=O)N(CC(C)C)c2ccccc2)s1 | – | inactive: 0.833%
69 | Cc1ccccc1OCCN1C(=O)C(=O)c2cccc(C)c21 | – | inactive: 9.82%
70 | CNC(=O)NC(=O)COC(=O)c1ccc(-n2c(C)ccc2C)cc1 | inconclusive [activator, single point] | –
